Experimental data reported in the supplement of paper PMC8728848.
The other results are listed elsewhere or left out.

What was measured:
Experiment in all cases: glycan array binding signal (z-score within array); higher = stronger binding
Conditions in all cases: glycan notation: IUPAC condensed, linker removed; mutation: D109R
[1] = target: Neu5Ac(a2-3)Gal(b1-4)GlcNAc(b1-3)[Neu5Ac(a2-3)Gal(b1-4)GlcNAc(b1-6)]GalNAc
Method in brief: (§1)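 Glycan array data came from 3228 arrays in the Consortium for Functional Glycomics database, and only arrays with an available protein sequence were kept. Glycan names were put into IUPAC-condensed notation, and columns mapping to the same glycan were averaged. The binding signal is a within-array Z-score, averaged across arrays of one protein sequence run at different concentrations or buffers and across linkers. A negative Z-score can be read as non-binding.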

[2] = target: Neu5Ac(a2-3)Gal(b1-4)GlcNAc(b1-6)GalNAc
Method in brief: as §1

[3] = target: Neu5Ac(a2-3)Gal(b1-4)GlcNAc(b1-6)[Gal(b1-3)]GalNAc
Method in brief: as §1

[4] = target: Neu5Ac(a2-3)Gal(b1-4)GlcNAc(b1-6)[Neu5Ac(a2-3)Gal(b1-3)]GalNAc
Method in brief: as §1

[5] = target: Neu5Ac(a2-3)Gal(b1-4)GlcNAc6S
Method in brief: as §1

[6] = target: Neu5Ac(a2-3)Gal(b1-4)[Fuc(a1-3)]GlcNAc
Method in brief: as §1

[7] = target: Neu5Ac(a2-3)Gal(b1-4)[Fuc(a1-3)]GlcNAc(b1-2)Man
Method in brief: as §1

[8] = target: Neu5Ac(a2-3)Gal(b1-4)[Fuc(a1-3)]GlcNAc(b1-3)Gal
Method in brief: as §1

[9] = target: Neu5Ac(a2-3)Gal(b1-4)[Fuc(a1-3)]GlcNAc(b1-3)Gal(b1-4)GlcNAc
Method in brief: as §1

[10] = target: Neu5Ac(a2-3)Gal(b1-4)[Fuc(a1-3)]GlcNAc(b1-3)Gal(b1-4)[Fuc(a1-3)]GlcNAc(b1-3)Gal(b1-4)[Fuc(a1-3)]GlcNAc
Method in brief: as §1

[11] = target: Neu5Ac(a2-3)Gal(b1-4)[Fuc(a1-3)]GlcNAc(b1-3)GalNAc
Method in brief: as §1

[12] = target: Neu5Ac(a2-3)Gal(b1-4)[Fuc(a1-3)]GlcNAc(b1-6)[Gal(b1-3)]GalNAc
Method in brief: as §1

[13] = target: Neu5Ac(a2-3)Gal(b1-4)[Fuc(a1-3)]GlcNAc(b1-6)[Neu5Ac(a2-3)Gal(b1-3)]GalNAc
Method in brief: as §1

[14] = target: Neu5Ac(a2-3)Gal(b1-4)[Fuc(a1-3)]GlcNAc6S
Method in brief: as §1

[15] = target: Neu5Ac(a2-3)Gal6S(b1-4)GlcNAc
Method in brief: as §1

[16] = target: Neu5Ac(a2-3)Gal6S(b1-4)[Fuc(a1-3)]GlcNAc
Method in brief: as §1

Neu5Ac(a2-3)GalNAc = target: Neu5Ac(a2-3)GalNAc
Method in brief: as §1

[17] = target: Neu5Ac(a2-3)GalNAc(b1-4)GlcNAc
Method in brief: as §1

[18] = target: Neu5Ac(a2-3)[GalNAc(b1-4)]Gal(b1-4)Glc
Method in brief: as §1

[19] = target: Neu5Ac(a2-3)[GalNAc(b1-4)]Gal(b1-4)GlcNAc
Method in brief: as §1

[20] = target: Neu5Ac(a2-3)[GalNAc(b1-4)]Gal(b1-4)GlcNAc(b1-3)GalNAc
Method in brief: as §1

[21] = target: Neu5Ac(a2-3)[Neu5Ac(a2-6)]GalNAc
Method in brief: as §1

Neu5Ac(a2-6)Gal = target: Neu5Ac(a2-6)Gal
Method in brief: as §1

[22] = target: Neu5Ac(a2-6)Gal(b1-3)GlcNAc(b1-3)[Gal(b1-4)GlcNAc(b1-6)]Gal(b1-4)Glc
Method in brief: as §1

Neu5Ac(a2-6)Gal(b1-4)Glc = target: Neu5Ac(a2-6)Gal(b1-4)Glc
Method in brief: as §1

[23] = target: Neu5Ac(a2-6)Gal(b1-4)GlcNAc
Method in brief: as §1

[24] = target: Neu5Ac(a2-6)Gal(b1-4)GlcNAc(b1-2)Man
Method in brief: as §1

[25] = target: Neu5Ac(a2-6)Gal(b1-4)GlcNAc(b1-2)Man(a1-3)Man(b1-4)GlcNAc(b1-4)GlcNAc
Method in brief: as §1

[26] = target: Neu5Ac(a2-6)Gal(b1-4)GlcNAc(b1-2)Man(a1-3)[Gal(b1-4)GlcNAc(b1-2)Man(a1-6)]Man(b1-4)GlcNAc(b1-4)GlcNAc
Method in brief: as §1

[27] = target: Neu5Ac(a2-6)Gal(b1-4)GlcNAc(b1-2)Man(a1-3)[GlcNAc(b1-2)Man(a1-6)]Man(b1-4)GlcNAc(b1-4)GlcNAc
Method in brief: as §1

[28] = target: Neu5Ac(a2-6)Gal(b1-4)GlcNAc(b1-2)Man(a1-3)[GlcNAc(b1-4)][Neu5Ac(a2-6)Gal(b1-4)GlcNAc(b1-2)Man(a1-6)]Man(b1-4)GlcNAc(b1-4)GlcNAc
Method in brief: as §1

B1: MpL2 (Macrolepiota procera) (protein)
chain: MSTQVSSGQTYKITNVKAGTVIDLSGEDNKSIIGYPYHSGKNQQWTFNWTGKAWTLRSASSGSYLGIEGTPADGTRLVAVNDPFEWHIWRDEANENAFRIFVPFTNYNLRLSGYGDTTPGTPVQLWWTWEGLHQTWTIDRP
For B1, the “glycan array binding signal (z-score)” value [1] was -0.234, the “glycan array binding signal (z-score)” value [2] was -0.276 and the “glycan array binding signal (z-score)” value [3] was -0.241. The “glycan array binding signal (z-score)” value [4] was -0.281, the “glycan array binding signal (z-score)” value [5] was -0.262 and the “glycan array binding signal (z-score)” value [6] was -0.266. The “glycan array binding signal (z-score)” value [7] was -0.294, the “glycan array binding signal (z-score)” value [8] was -0.253 and the “glycan array binding signal (z-score)” value [9] was -0.236. For the same binder, the “glycan array binding signal (z-score)” value [10] was -0.274, the “glycan array binding signal (z-score)” value [11] was -0.187 and the “glycan array binding signal (z-score)” value [12] was -0.2. The “glycan array binding signal (z-score)” value [13] was -0.168, the “glycan array binding signal (z-score)” value [14] was -0.264 and the “glycan array binding signal (z-score)” value [15] was -0.286. The “glycan array binding signal (z-score)” value [16] was -0.281, the “glycan array binding signal (z-score)” value (Neu5Ac(a2-3)GalNAc) was -0.301 and the “glycan array binding signal (z-score)” value [17] was -0.268. The “glycan array binding signal (z-score)” value [18] was -0.253, the “glycan array binding signal (z-score)” value [19] was -0.284 and the “glycan array binding signal (z-score)” value [20] was -0.134. For the same binder, the “glycan array binding signal (z-score)” value [21] was -0.268, the “glycan array binding signal (z-score)” value (Neu5Ac(a2-6)Gal) was -0.254 and the “glycan array binding signal (z-score)” value [22] was -0.203. The “glycan array binding signal (z-score)” value (Neu5Ac(a2-6)Gal(b1-4)Glc) was -0.254, the “glycan array binding signal (z-score)” value [23] was -0.26 and the “glycan array binding signal (z-score)” value [24] was -0.264. For the same binder, the “glycan array binding signal (z-score)” value [25] was -0.258, the “glycan array binding signal (z-score)” value [26] was -0.238 and the “glycan array binding signal (z-score)” value [27] was -0.268. For the same binder, the “glycan array binding signal (z-score)” value [28] was -0.266.
